Drawing on the RNAGym collection of RNA variant scans (doi:10.1093/nar/gkz1192), this text covers self-cleavage for 34 variants.

The labels stand for the following.
B1: CPEB3 Ribozyme (parent)
chain: UAACAGGGGGCCACAGCAGAAGCGUUCACGUCGCAGCCCCUGUCAGAUUCUGGUGAAUCUGCGAAUUCUGCUGUAUAUCUC

Read counts are not given, so values of variants with three or more changes are uncertain.

The variants in the series derive from B1. As to the kind of experiment: self-cleavage, relative activity (ratio to wild type); higher = more cleavage; in vitro, sequencing. A digest of the protocol: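 Relative activity compares each variant's cleaved/total read fraction with that of the unmutated ribozyme. To get these fractions, barcoded CPEB3 ribozyme libraries from rounds of error-prone PCR were transcribed with T7 RNA polymerase for 5 hours at 37°C and then given 15 min of DNase I treatment before EDTA was added. The RNAs were reverse transcribed with template switching and sequenced on Illumina, and DNA sequencing linked barcodes to variants. A minimum of 5 reads applied, and three batches were averaged.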
Regarding UAACGGGGGGCCACAGCGGAAGCGUUCACGUCGCGGCCCCAGUCAGAUUCUGGUGAAUCUGCUAAUUCUGCUGUAUAUCUC [A5G A18G A35G U41A G63U], the self-cleavage was found to be 0.42.

For UAACGGGGGGCCACUGCAGAAGCGUUCGCGUCGCAGCCCCUGUCAGAUUCUGGUGAAUCCGCGAAUUCUGCUGUAUACCUC [A5G A15U A28G U60C U78C], the self-cleavage is 0.29.

On to UAACGGGGGGCCACUGCAGAAGCGUUCACGUCGCAGCCCCUGUCAGAUUCUGGUGAAUCUGCGAAUCCUGCUGUAUAUCUC [A5G A15U U67C], for which the self-cleavage was 0.06.

On to UAACGGGGGGCCACAGCGGAAGCGUUCUCGUCGCAGCCCCUGUCAGAUUCUGGUGAAUCUGCGAAUUCUGCUGUAUAUCCC [A5G A18G A28U U80C], for which the self-cleavage came to 0.13.

Regarding UAACGGGGGGCCACAGCGGAAGUGUUCACGUCGCAGCCUCUUUCAGAUUCUGGUGAAUCUGCGAAUUCUGCUGUAUAUCUC [A5G A18G C23U C39U G42U], the self-cleavage worked out at 0.07.

UAACGGGGGGCCACAGCGGAAGCGUACACGACGCAGCCCCUGUCAGAUUCUGGUGAAUCCGCGAACUCUGCUGUAUAUCUC [A5G A18G U26A U31A U60C U66C]: the self-cleavage came out at 0.07.

Turning to UAACGGGGGGCCACUGCAGAAGCGUUCACGUCGCAGACCCUGUCAGAUUCUGGUGAAUCUGCGAAUUCUGCUGUAUAUCUC [A5G A15U C37A], the self-cleavage is 0.1.

Regarding UAACGGGGGGCCACUGCUGAAGCGUCCACAUCGCAGCCCCUGUCAGAUUCUGGUGAAUCUGCGAAUUCUGCUGUUUAUCUC [A5G A15U A18U U26C G30A A75U], the self-cleavage was 0.08.

In the case of UAACGGGGGGCCACAGCGGAAGCGUUCACGUCGCUGCCCCUGCCAGAUUCUGGUGAAUCUGCGGAUUCUGCUGUAUAUCUC [A5G A18G A35U U43C A64G], the self-cleavage stood at 0.32.

Take UAACGGGGGGCCACAGCGGAAGCGUUCACGUCGCAGCCCCUAUCAGAUUCUGGUGAAUCUGCGAAUUCUGCUGUGUAUCUC [A5G A18G G42A A75G]: the self-cleavage is 0.12.

As for UAACGGGGGGCCACUGCAGAAGCGUUCACGUCGCAGCCCCUGUCAGAUUCUGGUGAAUCUGCGAAUUCUGCUGCAUAUCUC [A5G A15U U74C], the self-cleavage is 0.75.

For UAACGGGGGGCCACUGCAGAAGCGUUCACGUCGCGGCCCCUGUCAGAUUCCGGUGAAUCUGUGGAUUCUGCUGUAUAUCUC [A5G A15U A35G U51C C62U A64G], the self-cleavage was determined as 0.25.

On to UAACGGGGGGCCACGGCAGAAGCGUUCACGUCGCAGCCCCUGUCAGAUUCUGGUGAAUCUGCGAAAUCCGCUGUAUAUCUC [A5G A15G U66A U69C], for which the self-cleavage came to 0.43.

Regarding UAACGGGGGGCCACUGCAGGAGCGUUCACGUCGCGGCCCCUGUCAGAUUCUGGUGAAUCUGCGAAUUCUGCUGUAUAUCUC [A5G A15U A20G A35G], the self-cleavage turned out to be 0.92.

With UAACGGGGGGCCACAGCGGAAGCGUUCAUGUCGCGGCCCCUGUCAGAUUCUGGUGAAUCUGCGAAUUCUGCUGUAUAUCUA [A5G A18G C29U A35G C81A], the self-cleavage was found to be 0.44.

With UAACGGGGGGCCACAGCCGAAGCGUUCACGUCGCAGCCCCUGUCAGGUUCUGGUGAGUCUGCGAAUUCUGCUGUAUAUCUC [A5G A18C A47G A57G], the self-cleavage was determined as 0.32.

Take UAACGGGGGGCCACGGCAGAAGCGUUCACGUCGCAGCCCCUGUCAGAUUCUUGUGGAUCUGCGAAUUCUGCUGUAUAUCUC [A5G A15G G52U A56G]: the self-cleavage amounted to 0.61.

UAACGGGGGGCCACGGCAGAAGCGCUCACGUCACAGCCCCUGUCAGAUUCUGGUGAAUCUGCGAAUUCUGCUGUAUACCUC [A5G A15G U25C G33A U78C]: the self-cleavage came out at 0.13.

For UAACGGGGGGCCACAGCGGAAGCGGUCUCGUCGCAGCCCCAGUCAGAUCCCGGUGAAUCUGCGAAUUCUGCUGUAUAUCUC [A5G A18G U25G A28U U41A U49C U51C], the self-cleavage stood at 0.13.

Take UAACGGGGGGCCACAGCCGAAGCGCUCACGUCGCAGCCCCUGUCAGAUUCUGGUGAAUCUGCGAGUUCUGCUGUAUAUCCC [A5G A18C U25C A65G U80C]: the self-cleavage is 0.36.

For the variant UAACGGGGGGCCACUGCAGAAGCGUUCAAGUCGCAGCCCCUGUCAGAUUCUGGUGAACCUGCGAAUUCUGCUGUAUACCUC [A5G A15U C29A U58C U78C], the self-cleavage turned out to be 0.34.

UAACGGGGGGCCACUGCAGAAGCGUUCACGUCGCAGCCCCUGUCAGAUUCUGGUGAAUCUGCGAAUUCUGCUGUAUGUCUC [A5G A15U A77G]: the self-cleavage was 0.82.

On to UAACGGGGGGCCACUGCAGAAGCGUUCACGUCGCAGCCCCUGUCAGAUUGUGGUGAAUCUGCGAAUUCUGCUGUAUAUCUC [A5G A15U C50G], for which the self-cleavage worked out at 0.24.

As for UAACGGGGGGCCACGGCAGAAGCGUACACGUCGCAGCCCCUGUCAGACUCUGGUGAAUCUGCGAAUUCUGCUGAAUAUCUC [A5G A15G U26A U48C U74A], the self-cleavage was 0.52.

As for UAACGGGGGGCCACAGCGGAAGCGUUCGCGUCGCGGCCCCUGUCAGAUUCUGGUGAAUCUGCGAAUUCUGCUGUAUAUCUC [A5G A18G A28G A35G], the self-cleavage came to 0.17.

Consider UAACGGGGGGCCACUGCAGAAGCGUUCACGUCGCAGCCCAAGUCAGAUUCUGGUGAAUCUGCGAAUUCCGCCGUAUAUCUC [A5G A15U C40A U41A U69C U72C], for which the self-cleavage was 0.22.

On to UAACGGGGGGCCACGGCAGAAGCGUUCACGCCACAGUCCCAGUCAGAUUCUGGUGAAUCUGCGAAUUCUGCUGUAUAUCUC [A5G A15G U31C G33A C37U U41A], for which the self-cleavage was 0.23.

Consider UAACGGGGGGCCACGGCAGAAGCGCUCACGUCGCAGCCCCUGUCAGAUUCUGGUGAAUCUGCGAAUUCCGCUGUAUAUCUC [A5G A15G U25C U69C], for which the self-cleavage is 0.51.

Take UAACGGGGGGCCACAGCGGAAGCGUUCACGUCGCAGCCCCUGUCAAAUUCUGGUGAUUCUGCGAAUUCUGCUGUAUAUCUC [A5G A18G G46A A57U]: the self-cleavage was 0.14.

Regarding UAACGGGGGGCCACUGCAGAAGCGUUCACGUCGCAGCCCCUGACAGAUUCUGGCGAAUCUGCGAAUUCUGCUGUAUAUCUC [A5G A15U U43A U54C], the self-cleavage was 0.55.

Consider UAACGGGGGGCCACAGCGGAAGCGUUCUCGUCGCAGCCCCUGUCAGAUUCUGGUGAAUCUGCGAAUUCUGCUGUAUAUCUC [A5G A18G A28U], for which the self-cleavage worked out at 0.24.

For UAACGGGGGGCCACUGCAGAAGCGUUCACGUCGCAGCCCCUGUCGGAUUCUGGUGAAUCUGCGAAUUCUGCCGUAUAUCCC [A5G A15U A45G U72C U80C], the self-cleavage turned out to be 0.17.

As to UAACGGGGGGCCACUGCAGAAGCGUUCUCGUCGCAGCCCCUGCCAGAUUCUGGUGAAUCUGCGAAUUCUGCUGUAUAUCUC [A5G A15U A28U U43C], the self-cleavage came out at 0.73.

Take UAACGGGGGGCCACGGCAGAAGCGUUCACGACGCAGCCCCGGUCAGAUUCUGGUGAAUCUGCGAAUACUGCUGUAUAUCUC [A5G A15G U31A U41G U67A]: the self-cleavage was determined as 0.5.
